{"source": "PubChem BioAssay AID720542", "about": "(National Center for Advancing Translational Sciences (NCATS), 2013)", "note": "Several values for one entry are separate records, joined by “and”; a condition that tells them apart may be missing. Identical values can stand only once. Screen size: about 360,000 compounds; about 740 (0.21%) were called active. This list was built around the results that the source calls inconclusive (neither active nor inactive); the mix of calls is not that of the screen. The call rests on the fitted dose curve; in most records, active means well fitted inhibition curve with a large enough effect; inconclusive means small, poorly fitted or top-dose-only effect; inactive means no such curve, though single readings can be large or run the other way. Potencies of inconclusive entries are doubtful fits and often do not repeat. Potency means the concentration at half of the fitted maximal effect; tags describe the fitted curve by direction and shape.", "data": [{"tested_on": "Plasmodium falciparum AMA1 (3D7) - RON2 peptide interaction", "assay": "qHTS for Inhibitors of AMA1-RON; Towards Development of Antimalarial Drug Lead: Primary Screen; further: nearly all actives have a fitted effect of over 45% in size;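 on activity change, negative = inhibition: 0% = vehicle wells and -100% = peptide control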", "settings": "AlphaScreen AMA1-biotinylated RON2 peptide binding; activity change, negative = inhibition: at 58.2 µM (top of the series) unless noted", "method_in_brief": "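AMA1 (3D7) with his tag at 25 nM final met compounds first, then biotinylated RON2 peptide at 25 nM; detection used donor plus acceptor beads, 10 µg/mL apiece, read by AlphaScreen after 30 min at room temperature.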", "values": [{"smiles": "CCOC(=O)c1c2c(n(-c3ccc(OC)cc3)c1C)C(=O)C(=O)c1ccccc1-2", "Potency": "inconclusive: 14.1 µM [inhibitor, partial curve]"}, {"smiles": "C#CCOc1ccc(/C=C2/C(=O)NN(c3ccc(F)cc3)C2=O)cc1OC", "activity change, negative = inhibition": "inactive: -5.89%"}, {"smiles": "CCOC(=O)N1CCN(C(=O)C2CCN(Cc3ccc(OC)cc3OC)CC2)CC1", "Potency": "inconclusive: 3.16 µM [inhibitor, partial curve, poor fit]"}, {"smiles": "O=c1cc(-c2ccc(O)cc2)oc2ccc(O)cc12", "activity change, negative = inhibition": "inactive: 1.34%"}, {"smiles": "CN(C)c1ccc(C(c2nnnn2CCOC(=O)Nc2ccc(Cl)cc2)N2CCOCC2)cc1", "note": "(configuration not stated)", "Potency": "inconclusive: 39.8 µM [inhibitor, single point]"}, {"smiles": "CC(O)c1nc2ccccc2n1Cc1nnc(-c2ccc(Cl)cc2)o1", "note": "(configuration not stated)", "activity change, negative = inhibition": "inactive: -6.96%"}, {"smiles": "NCC(O)c1cc(O)c(O)cc1F", "note": "(configuration not stated)", "Potency": "inconclusive: 1.12 µM [inhibitor, partial curve]"}, {"smiles": "O=C(Nc1ccc2c(c1)OCO2)C(c1ccc(Cl)cc1)N1CCN(C(=O)c2ccco2)CC1", "note": "(configuration not stated)", "Potency": "inconclusive: 6.31 µM [inhibitor, single point]"}, {"smiles": "O=C(Nc1ccc(N=Nc2ccccc2)c(NC(=O)C2CCCO2)c1)C1CCCO1", "note": "(configuration not stated)", "Potency": "inconclusive: 14.1 µM [inhibitor, partial curve]"}, {"smiles": "COc1cccc(C(O)c2nc(-c3cccc(CO)c3)cs2)c1", "note": "(configuration not stated)", "activity change, negative = inhibition": "inactive: 21.3%"}, {"smiles": "COc1ccc(OCc2cc(C(=O)N3CCCC(OC)C3)no2)c2ccccc12", "note": "(configuration not stated)", "Potency": "inconclusive: 31.6 µM [inhibitor, single point]"}, {"smiles": "COc1cc(NCc2ccccc2)c2ncn(Cc3ccccc3)c2c1", "Potency": "inconclusive: 17.8 µM [inhibitor, single point]"}, {"smiles": "CC1CCN(C(=O)C2CCN(S(=O)(=O)c3ccc4c(c3)CC(C)N4C(=O)C3CC3)CC2)CC1", "note": "(configuration not stated)", "activity change, negative = inhibition": "inactive: -3.2%"}, {"smiles": "Cc1ccc(NCC(=O)N/N=C\\c2ccc([N+](=O)[O-])o2)cc1", "Potency": "inconclusive: 37.7 µM [inhibitor, single point]"}, {"smiles": "NC(=O)CC(NC(=O)c1ccccc1)c1ccc(NCCN2CCCCC2)c([N+](=O)[O-])c1", "note": "(configuration not stated)", "activity change, negative = inhibition": "inactive: 2.78%"}, {"smiles": "N#Cc1c2c(c(NCc3cccnc3)n3c1nc1ccccc13)CCC2", "activity change, negative = inhibition": "inactive: 0.898%"}, {"smiles": "CN(Cc1ccccc1)Cc1c(O)ccc2ccccc12", "Potency": "inconclusive: 28.2 µM [inhibitor, partial curve]"}, {"smiles": "Cc1cc(OCc2nc3ccccc3s2)ccc1N", "Potency": "inconclusive: 8.91 µM [inhibitor, partial curve]"}, {"smiles": "Cc1ccc2nc(-c3ccc(NC(=O)c4ccco4)cc3)[nH]c2c1", "Potency": "inconclusive: 29.9 µM [inhibitor, single point]"}, {"smiles": "C[C@@H]1ON(C)[C@H]2C[C@H]3c4[nH]c5ccc(-c6ccc7c(c6)OCO7)cc5c4CCN3C[C@@H]12", "Potency": "inconclusive: 17.8 µM [inhibitor, partial curve]"}, {"smiles": "COc1ccc(C(=O)N=c2sccn2C)cc1", "activity change, negative = inhibition": "inactive: 10.2%"}, {"smiles": "CC(C)=NNc1cnnc2ccc([N+](=O)[O-])cc12", "Potency": "inconclusive: 10 µM [inhibitor, partial curve]"}, {"smiles": "Cc1noc(C)c1S(=O)(=O)N1CCCN(C(=O)/C=C/c2ccccc2F)CC1", "Potency": "inconclusive: 39.8 µM [inhibitor, single point]"}, {"smiles": "COC1=C(Nc2ccc(C)cc2)C(=O)c2ccccc2C1=O", "Potency": "active: 10 µM"}, {"smiles": "Cc1ccc(S(=O)(=O)N2CCC(C(=O)NCCc3ccccn3)CC2)cc1", "Potency": "inconclusive: 3.55 µM [inhibitor, single point]"}, {"smiles": "O=C(Nc1ccc2nc(-c3ccco3)c(-c3ccco3)nc2c1)N1CCN(c2ccccn2)CC1", "Potency": "inconclusive: 14.1 µM [inhibitor, partial curve]"}, {"smiles": "O=C(Nc1ccc(F)cc1F)c1ccc2c(c1)OCCO2", "activity change, negative = inhibition": "inactive: 2.72%"}, {"smiles": "COCCn1c(SCC(=O)Nc2ccc3[nH]c(=O)[nH]c3c2)nc2ccccc2c1=O", "Potency": "inconclusive: 11.2 µM [inhibitor, partial curve]"}, {"smiles": "C[C@@H]1CN([C@@H](C)CO)C(=O)c2cc(NC(=O)Nc3ccc(F)cc3)ccc2O[C@@H]1CN(C)Cc1ccc(Oc2ccccc2)cc1", "Potency": "inconclusive: 25.1 µM [inhibitor, single point]"}, {"smiles": "CC1Cc2ccccc2N1Cc1cccc([N+](=O)[O-])c1", "note": "(configuration not stated)", "Potency": "active: 10 µM"}, {"smiles": "CCN(CC)C(=O)c1ccc(NC(=O)c2cccc(S(=O)(=O)N3CCN(C)CC3)c2)cc1", "activity change, negative = inhibition": "inactive: -10.3%"}, {"smiles": "COc1ccccc1NC(=S)NCc1ccc2c(c1)cc(C)n2C", "Potency": "inconclusive: 28.2 µM [inhibitor, single point]"}, {"smiles": "c1ccc(N2CCN(Cc3ccnc4ccccc34)CC2)cc1", "Potency": "inconclusive: 26.7 µM [inhibitor, single point]"}, {"smiles": "COc1ccc(/C=N/c2nc3ccccc3n2CCN2CCCCC2)cc1OC", "Potency": "inconclusive: 4.74 µM [inhibitor, single point]"}, {"smiles": "COC(=O)c1ccccc1SC1CC(=O)N(c2cccc(C)c2)C1=O", "note": "(configuration not stated)", "Potency": "inconclusive: 12.6 µM [inhibitor, partial curve, poor fit]"}, {"smiles": "CNC[C@H](O)c1ccc(O)c(O)c1", "Potency": "inconclusive: 39.8 µM [inhibitor, single point]"}, {"smiles": "CN1CCN(CCCN2c3ccccc3Sc3ccc(C(F)(F)F)cc32)CC1", "Potency": "inconclusive: 35.5 µM [inhibitor, single point] and inconclusive: 11.2 µM [inhibitor, partial curve] and inconclusive: 44.7 µM [inhibitor, partial curve, poor fit]"}, {"smiles": "O=c1c(-c2n[nH]c(=S)o2)cccn1Cc1ccccc1", "Potency": "inconclusive: 8.91 µM [inhibitor, partial curve]"}, {"smiles": "CN(C)c1ccc(NS(=O)(=O)c2cc(Cl)ccc2Cl)cc1", "Potency": "inconclusive: 22.4 µM [inhibitor, single point]"}, {"smiles": "CCN1C(=O)C(CC(=O)Nc2ccc(F)cc2)N(CCCN2CCN(c3ccc(F)cc3)CC2)C1=S", "note": "(configuration not stated)", "Potency": "inconclusive: 28.2 µM [inhibitor, single point]"}, {"smiles": "CCC(C)(C)NC(=O)Nc1cc(Cl)ccc1OC", "activity change, negative = inhibition": "inactive: -17.4%"}, {"smiles": "CCCN1CCN(c2ncnc3scc(C4COc5ccccc5O4)c23)CC1", "note": "(configuration not stated)", "Potency": "inconclusive: 17.8 µM [inhibitor, partial curve]"}]}]}
